In the supplement of paper PMC4967469:
The IC50 comes from the fitted curve, where viability falls to half of the control; fits outside the tested doses are given as limits. AUC is the area under the same curve over the 256-fold range up to the top dose, as a fraction: 1 means no effect, lower means more sensitive. An inferred top dose is not printed in the source and was worked back from the curve model.

How the values were obtained:
Test in all cases: Viability of human cancer cell lines after 72 h of drug (GDSC screen)
BMS-509744 = compound: COc1cc(C)c(Sc2cnc(NC(=O)c3ccc(CNC(C)C(C)(C)C)cc3)s2)cc1C(=O)N1CCN(C(C)=O)CC1 [BMS-509744]; conditions: top dose 10.24 µM; top dose inferred
Protocol: (§1)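 Human cancer cell lines in 384-well plates, medium with 10% serum, drug for 72 h over a 256-fold dose range (nine 2-fold or five 4-fold steps up to the top dose). Adherent lines were fixed and stained with the nucleic acid dye Syto60, suspension lines read with resazurin; signal relative to control wells, capped at 0 and 100%. One two-parameter sigmoid per drug and line, fitted in a mixed model over all curves with the slope shared within a line.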

PFI-1 = compound: COc1ccccc1S(=O)(=O)Nc1ccc2c(c1)CN(C)C(=O)N2 [PFI-1]; conditions: top dose 10 µM; top dose inferred
Protocol: as §1

GSK-1904529A = compound: CCc1cc(Nc2nccc(-c3c(-c4ccc(OC)c(C(=O)Nc5c(F)cccc5F)c4)nc4ccccn34)n2)c(OC)cc1N1CCC(N2CCN(S(C)(=O)=O)CC2)CC1 [GSK-1904529A]; conditions: top dose 1.024 µM; top dose inferred
Protocol: as §1

NG-25 = compound: CCN1CCN(Cc2ccc(NC(=O)c3ccc(C)c(Oc4ccnc5[nH]ccc45)c3)cc2C(F)(F)F)CC1 [NG-25]; conditions: top dose 10.24 µM; top dose inferred
Protocol: as §1

Tipifarnib = compound: Cn1cncc1[C@@](N)(c1ccc(Cl)cc1)c1ccc2c(c1)c(-c1cccc(Cl)c1)cc(=O)n2C [Tipifarnib]; conditions: top dose 16 µM; top dose inferred
Protocol: as §1

Cell Line | AUC (BMS-509744) | IC50 (BMS-509744) | AUC (PFI-1) | IC50 (PFI-1) | AUC (GSK-1904529A) | IC50 (GSK-1904529A) | AUC (NG-25) | IC50 (NG-25) | AUC (Tipifarnib) | IC50 (Tipifarnib)
D-263MG (glioma, adherent) | 0.899 | > 10.2 µM | 0.843 | 9.36 µM | 0.982 | > 1.02 µM | 0.981 | > 10.2 µM | 0.96 | > 16 µM
D-283MED (medulloblastoma, adherent) | 0.931 | > 10.2 µM | 0.943 | > 10 µM | 0.991 | > 1.02 µM | 0.991 | > 10.2 µM | 0.847 | 10.3 µM
D-502MG (glioma, adherent) | 0.971 | > 10.2 µM | 0.911 | > 10 µM | 0.917 | > 1.02 µM | 0.846 | > 10.2 µM | 0.926 | > 16 µM
DB (B-cell lymphoma, suspension) | 0.939 | > 10.2 µM | 0.785 | 4.86 µM | 0.983 | > 1.02 µM | 0.707 | 2.67 µM | 0.799 | 8.83 µM
DEL (lymphoid neoplasm, suspension) | 0.924 | > 10.2 µM | 0.953 | > 10 µM | 0.994 | > 1.02 µM | 0.883 | 7.05 µM | 0.521 | 1.13 µM
DG-75 (Burkitt lymphoma, suspension) | 0.915 | > 10.2 µM | 0.622 | 1.36 µM | 0.987 | > 1.02 µM | 0.859 | 8.7 µM | 0.947 | > 16 µM
DMS-79 (small cell lung carcinoma, suspension) | 0.985 | > 10.2 µM | 0.985 | > 10 µM | 0.987 | > 1.02 µM | 0.927 | > 10.2 µM | 0.931 | > 16 µM
DMS-114 (small cell lung carcinoma, adherent) | 0.951 | > 10.2 µM | 0.841 | 8.55 µM | 0.984 | > 1.02 µM | 0.922 | > 10.2 µM | 0.897 | > 16 µM
DND-41 (T-cell leukaemia, suspension) | 0.929 | > 10.2 µM | 0.868 | 7.36 µM | 0.978 | > 1.02 µM | 0.615 | 1.27 µM | 0.701 | 3.39 µM
DSH1 (bladder, adherent) | 0.974 | > 10.2 µM | 0.954 | > 10 µM | 0.966 | > 1.02 µM | 0.979 | > 10.2 µM | 0.788 | 6.71 µM
DU-4475 (breast, suspension) | 0.946 | > 10.2 µM | 0.956 | > 10 µM | 0.989 | > 1.02 µM | 0.89 | 8.01 µM | 0.62 | 2 µM
Daudi (Burkitt lymphoma, suspension) | 0.928 | > 10.2 µM | 0.777 | 3.5 µM | 0.987 | > 1.02 µM | 0.747 | 2.92 µM | 0.65 | 2.45 µM
EB2 (Burkitt lymphoma, suspension) | 0.966 | > 10.2 µM | 0.989 | > 10 µM | 0.99 | > 1.02 µM | 0.409 | 0.369 µM | 0.654 | 2.56 µM
